Data published in the supplement of paper PMC4967469.
pIC50: −log10 of the molar value. A lower IC50 marks a more sensitive line; where the fit passes the top or lowest dose, that dose stands as a limit. AUC sums up the same curve from the lowest dose to the 256-fold higher top dose; the more sensitive the line, the further below 1. For some of these results: Any top dose called inferred comes from the curve model; the source does not state it. For some of these results: Where an entry number is given, a second screen of the drug exists; the two often differ.

What was measured:
Assay in all cases: Viability of human cancer cell lines after 72 h of drug (GDSC screen)
FTI-277 = compound: COC(=O)[C@H](CCSC)NC(=O)c1ccc(NC[C@@H](N)CS)cc1-c1ccccc1 [FTI-277]; details: top dose 1.024 µM; top dose inferred
Protocol: (§1)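 Human cancer cell lines in 384-well plates, medium with 10% serum, drug for 72 h over a 256-fold dose range (nine 2-fold or five 4-fold steps up to the top dose). Adherent lines were fixed and stained with the nucleic acid dye Syto60, suspension lines read with resazurin; signal relative to control wells, capped at 0 and 100%. One two-parameter sigmoid per drug and line, fitted in a mixed model over all curves with the slope shared within a line.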

JQ1 = compound: Cc1sc2c(c1C)C(c1ccc(Cl)cc1)=N[C@@H](CC(=O)OC(C)(C)C)c1nnc(C)n1-2 [JQ1]
Protocol: as §1

NSC-207895 = compound: CN1CCN(c2ccc([N+](=O)[O-])c3no[n+]([O-])c23)CC1 [NSC-207895]; details: top dose 20 µM; top dose inferred
Protocol: as §1

Cyclopamine = compound: CC1=C2C[C@H]3[C@@H](CC=C4C[C@@H](O)CC[C@@]43C)[C@@H]2CC[C@]12O[C@@H]1C[C@H](C)CN[C@H]1[C@H]2C [Cyclopamine]; details: top dose 16 µM; top dose inferred
Protocol: as §1

CGP-60474 = compound: OCCCNc1cc(-c2ccnc(Nc3cccc(Cl)c3)n2)ccn1 [CGP-60474]; details: top dose 0.256 µM; top dose inferred
Protocol: as §1

YM155 = compound: COCC[n+]1c2c(n(Cc3cnccn3)c1C)C(=O)c1ccccc1C2=O [YM155]; details: top dose 5.12 µM
Protocol: as §1

SB-715992 = compound: Cc1ccc(C(=O)N(CCCN)[C@@H](c2nc3cc(Cl)ccc3c(=O)n2Cc2ccccc2)C(C)C)cc1 [SB-715992]; details: top dose 0.128 µM; top dose inferred
Protocol: as §1

Belinostat = compound: O=C(/C=C/c1cccc(S(=O)(=O)Nc2ccccc2)c1)NO [Belinostat]; details: top dose 20 µM; top dose inferred
Protocol: as §1

NVP-TAE684 = compound: COc1cc(N2CCC(N3CCN(C)CC3)CC2)ccc1Nc1ncc(Cl)c(Nc2ccccc2S(=O)(=O)C(C)C)n1 [NVP-TAE684]; details: top dose 2 µM
Protocol: as §1

OSI-906 = compound: C[C@]1(O)C[C@@H](c2nc(-c3ccc4ccc(-c5ccccc5)nc4c3)c3c(N)nccn32)C1 [OSI-906]; details: top dose 2.56 µM; top dose inferred
Protocol: as §1

AMG-706 = compound: CC1(C)CNc2cc(NC(=O)c3cccnc3NCc3ccncc3)ccc21 [AMG-706]; details: top dose 2 µM; top dose inferred
Protocol: as §1

JNJ-26854165 = compound: c1ccc2c(CCNc3ccc(Nc4ccncc4)cc3)c[nH]c2c1 [JNJ-26854165]; details: top dose 10 µM
Protocol: as §1

Docetaxel = compound: CC(=O)O[C@@]12CO[C@@H]1C[C@H](O)[C@@]1(C)C(=O)[C@H](O)C3=C(C)[C@@H](OC(=O)[C@H](O)[C@@H](NC(=O)OC(C)(C)C)c4ccccc4)C[C@@](O)([C@@H](OC(=O)c4ccccc4)[C@H]21)C3(C)C [Docetaxel]; details: top dose 0.0125 µM
Protocol: as §1

JNK Inhibitor VIII = compound: CCOc1nc(NC(=O)Cc2cc(OC)ccc2OC)cc(N)c1C#N [JNK Inhibitor VIII]; details: top dose 10 µM; top dose inferred
Protocol: as §1

[1] = top dose 2.56 µM, screen: GDSC drug entry 163
[2] = top dose 1 µM, screen: GDSC drug entry 1218, top dose inferred

Cell Line | AUC (FTI-277) | pIC50 (FTI-277) | AUC (JQ1; [1]) | pIC50 (JQ1; [1]) | AUC (NSC-207895) | pIC50 (NSC-207895) | AUC (Cyclopamine) | pIC50 (Cyclopamine) | AUC (CGP-60474) | pIC50 (CGP-60474) | AUC (YM155) | pIC50 (YM155) | AUC (SB-715992) | pIC50 (SB-715992) | AUC (Belinostat) | pIC50 (Belinostat) | AUC (NVP-TAE684) | pIC50 (NVP-TAE684) | AUC (OSI-906) | pIC50 (OSI-906) | AUC (JQ1; [2]) | pIC50 (JQ1; [2]) | AUC (AMG-706) | pIC50 (AMG-706) | AUC (JNJ-26854165) | pIC50 (JNJ-26854165) | AUC (Docetaxel) | pIC50 (Docetaxel) | AUC (JNK Inhibitor VIII) | pIC50 (JNK Inhibitor VIII)
SCC-3 (B-cell lymphoma, suspension) | 0.997 | < 5.99 | 0.936 | 5.65 | 0.997 | < 4.70 | 0.993 | < 4.80 | 0.652 | 7.43 | 0.01 | > 7.70 | 0.676 | 7.67 | 0.384 | 6.18 | 0.012 | > 8.11 | 0.997 | < 5.59 | – | – | – | – | – | – | – | – | – | –
NK-92MI (lymphoid neoplasm, suspension) | 0.984 | < 5.99 | 0.969 | < 5.59 | – | – | 0.967 | < 4.80 | 0.662 | 7.36 | – | – | 0.816 | 7.19 | – | – | 0.847 | 5.88 | 0.984 | < 5.59 | – | – | – | – | – | – | – | – | – | –
VAL (B-cell lymphoma, suspension) | 0.986 | < 5.99 | 0.673 | 6.31 | 0.914 | < 4.70 | 0.897 | < 4.80 | – | – | 0.03 | > 7.70 | 0.661 | 7.65 | 0.161 | 6.94 | 0.95 | < 5.70 | 0.973 | < 5.59 | 0.985 | < 6.00 | 0.987 | < 5.70 | 0.9 | < 5.00 | 0.936 | < 7.90 | 0.987 | < 5.00
KP-N-RT-BM-1 (neuroblastoma, semi-adherent) | – | – | – | – | – | – | – | – | 0.809 | 6.73 | – | – | – | – | – | – | 0.636 | 6.48 | – | – | – | – | – | – | – | – | – | – | – | –
IA-LM (large cell lung carcinoma, adherent) | 0.835 | 6.10 | 0.514 | 6.75 | 0.978 | < 4.70 | – | – | 0.644 | 7.37 | 0.079 | > 7.70 | 0.875 | < 6.89 | 0.727 | 5.22 | 0.943 | < 5.70 | 0.979 | < 5.59 | 0.955 | < 6.00 | 0.96 | < 5.70 | 0.899 | < 5.00 | 0.874 | < 7.90 | 0.969 | < 5.00
SW982 (soft tissue, adherent) | 0.951 | < 5.99 | 0.401 | 7.07 | 0.942 | < 4.70 | – | – | 0.57 | 7.60 | 0.078 | > 7.70 | 0.712 | 7.49 | 0.414 | 6.14 | 0.536 | 6.80 | 0.964 | < 5.59 | 0.962 | < 6.00 | 0.985 | < 5.70 | 0.815 | 5.24 | 0.602 | 8.82 | 0.974 | < 5.00
HCE-4 (oesophagus, adherent) | 0.99 | < 5.99 | 0.974 | < 5.59 | 0.99 | < 4.70 | – | – | 0.678 | 7.33 | 0.875 | 5.42 | 0.961 | < 6.89 | 0.961 | < 4.70 | 0.833 | 5.98 | – | – | 0.987 | < 6.00 | – | – | 0.811 | 5.36 | – | – | – | –
KARPAS-620 (haematopoietic neoplasm, suspension) | 0.99 | < 5.99 | 0.543 | 6.69 | 0.922 | < 4.70 | – | – | 0.684 | 7.32 | 0.03 | > 7.70 | 0.871 | 7.04 | 0.226 | 6.63 | 0.489 | 6.93 | 0.329 | 7.24 | 0.8 | 6.39 | 0.991 | < 5.70 | 0.921 | < 5.00 | 0.911 | < 7.90 | 0.991 | < 5.00
A704 (kidney, adherent) | 0.848 | 6.14 | 0.986 | < 5.59 | – | – | – | – | 0.828 | 6.82 | – | – | 0.989 | < 6.89 | – | – | 0.768 | 6.14 | 0.972 | < 5.59 | 0.988 | < 6.00 | 0.975 | < 5.70 | – | – | 0.915 | < 7.90 | 0.989 | < 5.00
CP67-MEL (melanoma, adherent) | – | – | – | – | – | – | – | – | 0.654 | 7.23 | – | – | – | – | – | – | 0.89 | < 5.70 | – | – | – | – | – | – | – | – | – | – | – | –
TGBC24TKB (biliary tract, adherent) | 0.988 | < 5.99 | 0.574 | 6.60 | 0.981 | < 4.70 | – | – | 0.906 | < 6.59 | 0.733 | 5.85 | 0.926 | < 6.89 | 0.468 | 5.99 | 0.683 | 6.41 | 0.788 | 5.98 | 0.986 | < 6.00 | – | – | 0.887 | 5.00 | – | – | – | –
D-283MED (medulloblastoma, adherent) | 0.988 | < 5.99 | 0.854 | 5.76 | 0.991 | < 4.70 | 0.991 | < 4.80 | 0.979 | < 6.59 | 0.937 | < 5.29 | 0.984 | < 6.89 | 0.978 | < 4.70 | – | – | 0.989 | < 5.59 | 0.99 | < 6.00 | 0.972 | < 5.70 | 0.863 | 5.13 | 0.799 | 8.27 | 0.987 | < 5.00
